Assay results taken from article PMC4336329 (PLoS ONE, 2015).
Hit rate of the full screen: of about 310,000 compounds, about 14,000 (4.5%) showed an effect of 50% or more. The effect is printed as a negative number. This is one part of the list.

Molecular target: human ether-à-go-go-related gene (hERG) potassium channel (human, UniProt Q12809)
Assay: primary screen, population patch clamp on CHO cells stably expressing hERG
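Further: peak tail current of the secondary pulse compared with the same well before compound.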

Chain of human ether-à-go-go-related gene (hERG) potassium channel (Q12809 whole entry, looked up): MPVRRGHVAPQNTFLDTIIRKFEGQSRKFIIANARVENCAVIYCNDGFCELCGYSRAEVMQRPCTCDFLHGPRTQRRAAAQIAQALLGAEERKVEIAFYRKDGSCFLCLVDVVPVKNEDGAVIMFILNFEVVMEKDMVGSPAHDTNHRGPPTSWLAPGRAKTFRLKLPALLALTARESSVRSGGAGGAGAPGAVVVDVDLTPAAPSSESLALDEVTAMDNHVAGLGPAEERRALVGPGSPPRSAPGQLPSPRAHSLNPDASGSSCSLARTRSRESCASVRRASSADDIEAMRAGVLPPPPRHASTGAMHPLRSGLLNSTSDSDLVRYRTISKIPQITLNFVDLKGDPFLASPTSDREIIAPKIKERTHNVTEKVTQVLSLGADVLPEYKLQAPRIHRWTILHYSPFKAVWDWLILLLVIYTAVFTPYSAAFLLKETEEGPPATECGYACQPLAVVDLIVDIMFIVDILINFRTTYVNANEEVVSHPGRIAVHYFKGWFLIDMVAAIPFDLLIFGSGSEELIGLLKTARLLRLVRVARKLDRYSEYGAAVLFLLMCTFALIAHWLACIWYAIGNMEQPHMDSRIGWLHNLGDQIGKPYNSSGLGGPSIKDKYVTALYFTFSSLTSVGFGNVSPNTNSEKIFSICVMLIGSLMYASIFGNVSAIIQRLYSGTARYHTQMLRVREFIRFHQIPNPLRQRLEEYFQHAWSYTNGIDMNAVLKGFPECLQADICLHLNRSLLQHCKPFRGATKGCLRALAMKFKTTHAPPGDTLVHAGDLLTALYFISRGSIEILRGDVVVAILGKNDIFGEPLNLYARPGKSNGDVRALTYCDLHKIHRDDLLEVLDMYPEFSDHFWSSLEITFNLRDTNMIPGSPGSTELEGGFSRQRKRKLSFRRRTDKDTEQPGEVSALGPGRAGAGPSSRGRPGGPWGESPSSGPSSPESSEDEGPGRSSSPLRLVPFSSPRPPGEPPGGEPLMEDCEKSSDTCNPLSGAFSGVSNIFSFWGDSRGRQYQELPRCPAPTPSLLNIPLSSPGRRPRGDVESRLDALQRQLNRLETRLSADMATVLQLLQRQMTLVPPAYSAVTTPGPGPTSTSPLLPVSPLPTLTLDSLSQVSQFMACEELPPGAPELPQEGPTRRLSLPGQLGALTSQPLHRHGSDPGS

Q: Which “hERG current change (%, negative = inhibition) at 10uM” value does the source give for `C=CCN(C(=O)CCC(=O)Nc1cc(C)on1)C(C(=O)NC1CCCC1)c1ccc(C)cc1` (centres unmarked) here?
A: The value was 0.416%.

Q: With `COC(CN(C(=O)CCl)C(C(=O)NC1CCCC(C)C1C)c1ccc(C)cc1)OC` (centres unmarked) as the molecule, how does the “hERG current change (%, negative = inhibition) at 10uM” value read?
A: Its value is 10.1%.

Q: For `O=C1CC(N2C(=O)/C(=C/C=C/c3ccccc3)SC2=S)C(=O)N1c1ccccc1` (centres unmarked), which “hERG current change (%, negative = inhibition) at 10uM” value is on record?
A: The value was 7.04%.

Q: For `Cn1c(Nc2ccc(Cl)cc2)cc(=O)n(C)c1=O`, which “hERG current change (%, negative = inhibition) at 10uM” value is on record?
A: Its value is 23.6%.

Q: For `COc1ccc(S(=O)(=O)N2CCCCC2)cc1NC(=O)COc1ccccc1`, which “hERG current change (%, negative = inhibition) at 10uM” value is on record?
A: Its value is 13.7%.

Q: Which “hERG current change (%, negative = inhibition) at 10uM” value does the source give for `COc1ccccc1NC(=O)c1ccc(NS(=O)(=O)c2cccc3cccnc23)cc1` here?
A: Its value is 9.72%.

Q: `O=C(N/N=C1/CC2C=CCC12)c1ccc(Br)o1` (centres unmarked) was tested. Which “hERG current change (%, negative = inhibition) at 10uM” value did it give?
A: Its value is 16.9%.

Q: `Cc1ccc2[nH]c3c(c2c1)CCCC3C(N)=O` (centres unmarked) was tested. Which “hERG current change (%, negative = inhibition) at 10uM” value did it give?
A: Its value is 12.6%.

Q: How did the “hERG current change (%, negative = inhibition) at 10uM” value turn out when `Cc1ccc(S(=O)(=O)N2CCN(C(=O)CCCOc3ccc(Cl)cc3C)CC2)cc1` was run?
A: The value was -20.8%.

Q: For `CCOC(=O)NC(=S)Nc1ccc(C(C)(C)C)cc1`, which “hERG current change (%, negative = inhibition) at 10uM” value is on record?
A: The value was 3.81%.

Q: Which “hERG current change (%, negative = inhibition) at 10uM” value does the source give for `Cl.O=C(O)C(c1ccccc1)N1CCCCC1` (centres unmarked) here?
A: The value was 26.7%.

Q: Which “hERG current change (%, negative = inhibition) at 10uM” value does the source give for `COc1ccc(NC(=O)c2nnn(Cc3ccc(SC)cc3)c2N)c(OC)c1` here?
A: The value was 13.7%.

Q: With `Cc1cc(C)n2nc[n+](C)c2n1.[I-]` as the molecule, how does the “hERG current change (%, negative = inhibition) at 10uM” value read?
A: Its value is 16.3%.

Q: Which “hERG current change (%, negative = inhibition) at 10uM” value does the source give for `COc1ccc(/C=N/c2oc(C)c(C)c2C#N)c(OC)c1` here?
A: The value was 14.2%.

Q: With `NC(=O)C1CCCN(C(=O)CCCNC(=O)c2ccc(Cl)cc2)C1` (centres unmarked) as the molecule, how does the “hERG current change (%, negative = inhibition) at 10uM” value read?
A: The value was 22.4%.

Q: `COC(=O)[C@]1(C)N[C@H](c2ccc(-c3ccc(Cl)c(Cl)c3)cc2)[C@@H]2C(=O)N(C)C(=O)[C@@H]21.O=C(O)C(F)(F)F` was tested. Which “hERG current change (%, negative = inhibition) at 10uM” value did it give?
A: The value was 13.2%.

Q: For `COc1ccccc1N(C(=O)CNC(=O)c1ccco1)C(C(=O)NC1CCCCC1)c1ccncc1` (centres unmarked), which “hERG current change (%, negative = inhibition) at 10uM” value is on record?
A: Its value is 25.1%.

Q: `COc1ccc(-c2cc(C(=O)N/N=C/c3sccc3C)c3ccccc3n2)c(OC)c1` was tested. Which “hERG current change (%, negative = inhibition) at 10uM” value did it give?
A: Its value is 1.29%.

Q: With `CN(CC(=O)NC1CCCCCC1)S(=O)(=O)c1cnc[nH]1` as the molecule, how does the “hERG current change (%, negative = inhibition) at 10uM” value read?
A: The value was 18.9%.

Q: How did the “hERG current change (%, negative = inhibition) at 10uM” value turn out when `CC(=O)OC(C(=O)NC1CCCCC1)c1ccccc1` (centres unmarked) was run?
A: Its value is 12.9%.

Q: How did the “hERG current change (%, negative = inhibition) at 10uM” value turn out when `O=C(CSc1ncccn1)NC(=O)Cc1ccccc1` was run?
A: Its value is 11.5%.

Q: `O=[N+]([O-])c1ccc(Oc2c(F)c(F)nc(N3CCCC3)c2F)cc1` was tested. Which “hERG current change (%, negative = inhibition) at 10uM” value did it give?
A: The value was -19.7%.

Q: `CCOC(=O)Cn1nc(C)c(NC(=O)COc2ccccc2)c1C` was tested. Which “hERG current change (%, negative = inhibition) at 10uM” value did it give?
A: Its value is 14%.

Q: For `CNC(=O)COC(=O)/C=C/c1cn(-c2ccccc2)nc1-c1ccc2c(c1)OCCO2`, which “hERG current change (%, negative = inhibition) at 10uM” value is on record?
A: The value was 4.05%.

Q: Which “hERG current change (%, negative = inhibition) at 10uM” value does the source give for `COCCN(C(=O)c1snc(C(N)=O)c1N)C(C(=O)NC1CCCC1)c1cc(OC)c(OC)c(OC)c1` (centres unmarked) here?
A: The value was -46.8%.

Q: How did the “hERG current change (%, negative = inhibition) at 10uM” value turn out when `Cc1ccc(C(=O)Nc2ccc(N3CCOCC3)nc2)cc1` was run?
A: Its value is -9.28%.

Q: Which “hERG current change (%, negative = inhibition) at 10uM” value does the source give for `CCOc1ccc(Br)cc1S(=O)(=O)N1CCSC1` here?
A: The value was -10.6%.

Q: With `O=C(NCC1CCCO1)c1sc(=S)n2c1[nH]c(=O)c1ccc(C(=O)N3CCCCC3)cc12` (centres unmarked) as the molecule, how does the “hERG current change (%, negative = inhibition) at 10uM” value read?
A: Its value is -5.75%.

Q: How did the “hERG current change (%, negative = inhibition) at 10uM” value turn out when `CCCCn1c(N)c(N(CCOC)C(=O)C2CCN(S(=O)(=O)c3ccc(F)cc3)CC2)c(=O)[nH]c1=O` was run?
A: Its value is -1.06%.

Q: With `CC1(NC(=O)CCc2ccccc2)CCN(CCCc2ccccc2)C1=O` (centres unmarked) as the molecule, how does the “hERG current change (%, negative = inhibition) at 10uM” value read?
A: Its value is 5.85%.

Q: How did the “hERG current change (%, negative = inhibition) at 10uM” value turn out when `Cc1cccc(C)c1NC(=O)Cn1c(=O)n(CCC(=O)NCc2ccco2)c(=O)c2sccc21` was run?
A: Its value is -1.77%.

Q: `CCCN(Cc1nnc(-c2cccs2)o1)C(=O)c1cc(S(=O)(=O)N2CCOCC2)ccc1C` was tested. Which “hERG current change (%, negative = inhibition) at 10uM” value did it give?
A: The value was -37.1%.

Q: How did the “hERG current change (%, negative = inhibition) at 10uM” value turn out when `O=C(NCc1cccs1)C1CCN(C(=O)NCc2ccccc2)CC1` was run?
A: The value was 8.39%.

Q: How did the “hERG current change (%, negative = inhibition) at 10uM” value turn out when `CCC(C)(C)NC(=O)c1ccc(Sc2nncn2C)c([N+](=O)[O-])c1` was run?
A: The value was 3.37%.

Q: `CN(C)S(=O)(=O)c1cccc(NC(=O)CSc2nncn2C)c1` was tested. Which “hERG current change (%, negative = inhibition) at 10uM” value did it give?
A: Its value is 11.6%.

Q: For `COc1ccc(Cl)cc1NC(=O)CN(C)C(=O)c1cc2c(s1)CCC(C)C2` (centres unmarked), which “hERG current change (%, negative = inhibition) at 10uM” value is on record?
A: Its value is -0.503%.

Q: `Cc1ccc(/C=C(\NC(=O)c2ccccc2)C(=O)N2CCCC2C(=O)O)cc1` (centres unmarked) was tested. Which “hERG current change (%, negative = inhibition) at 10uM” value did it give?
A: The value was 22.7%.

Q: How did the “hERG current change (%, negative = inhibition) at 10uM” value turn out when `Cc1cc(-c2n[nH]c(=S)n2/N=C/c2ccc(C)o2)n[nH]1` was run?
A: Its value is 16.4%.

Q: `N/C(=N\OC(=O)Cc1ccc([N+](=O)[O-])cc1)c1ccc([N+](=O)[O-])cc1` was tested. Which “hERG current change (%, negative = inhibition) at 10uM” value did it give?
A: The value was -24.4%.

Q: `CNC(=S)SCCOc1ccccc1C` was tested. Which “hERG current change (%, negative = inhibition) at 10uM” value did it give?
A: Its value is -9.49%.

Q: `COc1ccc(OC)c(C2NC(=O)NC(C)=C2C(=O)OC2CCCCC2)c1` (centres unmarked) was tested. Which “hERG current change (%, negative = inhibition) at 10uM” value did it give?
A: Its value is 8.22%.

Q: For `Clc1cccc(Nc2nc(-c3cccnc3)cs2)c1`, which “hERG current change (%, negative = inhibition) at 10uM” value is on record?
A: The value was -4.06%.

Q: Which “hERG current change (%, negative = inhibition) at 10uM” value does the source give for `CC(=O)NC1(C(F)(F)F)C(=O)Nc2c1c(=O)[nH]c(=O)n2Cc1ccco1` (centres unmarked) here?
A: Its value is 1.97%.

Q: For `CCOc1ccc(NC(=O)CCS(=O)(=O)c2ccc(C)cc2)cc1`, which “hERG current change (%, negative = inhibition) at 10uM” value is on record?
A: The value was 4.49%.

Q: How did the “hERG current change (%, negative = inhibition) at 10uM” value turn out when `CCc1c(C)c2c(C)nn(-c3ccccc3)c2oc1=O` was run?
A: The value was 8.11%.

Q: How did the “hERG current change (%, negative = inhibition) at 10uM” value turn out when `CCOC(=O)COc1ccccc1/C=N\NC(=O)c1cc2c(ccc3ccccc32)o1` was run?
A: The value was 20.3%.

Q: With `COc1ccc(OCC(=O)N2CCN(S(=O)(=O)c3ccc(Cl)s3)CC2)cc1` as the molecule, how does the “hERG current change (%, negative = inhibition) at 10uM” value read?
A: Its value is -0.573%.

Q: Which “hERG current change (%, negative = inhibition) at 10uM” value does the source give for `N/C(=N\O)c1ccc(NC(=O)c2cccs2)cc1` here?
A: The value was 6.68%.

Q: `c1ccc(CCc2ccncc2)cc1` was tested. Which “hERG current change (%, negative = inhibition) at 10uM” value did it give?
A: Its value is 12%.

Q: `Cc1cc(=O)oc2c3c(cc(OCC(=O)NCCN4CCOCC4)c12)OC(C)(C)CC3` was tested. Which “hERG current change (%, negative = inhibition) at 10uM” value did it give?
A: The value was 5.91%.

Q: How did the “hERG current change (%, negative = inhibition) at 10uM” value turn out when `COc1ccccc1CNc1nc(SC)ncc1CO` was run?
A: The value was -12.5%.

Q: With `O=C(Cc1cccs1)Nc1nc(-c2ccc(F)cc2F)cs1` as the molecule, how does the “hERG current change (%, negative = inhibition) at 10uM” value read?
A: The value was -4.34%.

Q: Which “hERG current change (%, negative = inhibition) at 10uM” value does the source give for `CN(C)c1ccc(C=C2C(=O)NC(=O)NC2=O)cc1[N+](=O)[O-]` here?
A: The value was 30.8%.

Q: How did the “hERG current change (%, negative = inhibition) at 10uM” value turn out when `FC(F)(F)c1ccc(N/N=C/c2cccnc2)nc1` was run?
A: The value was -10.5%.

Q: For `COC(=O)c1c(-c2ccc(OC)cc2)sc2ccccc12`, which “hERG current change (%, negative = inhibition) at 10uM” value is on record?
A: Its value is 3.29%.

Q: `COc1ccccc1/C=N/NC(=O)c1ccc(NC(=O)c2cccc([N+](=O)[O-])c2)cc1` was tested. Which “hERG current change (%, negative = inhibition) at 10uM” value did it give?
A: Its value is 9.83%.
